Test results reported in PubChem BioAssay AID485360 (National Center for Advancing Translational Sciences (NCATS), 2010).
The whole screen tested about 230,000 compounds, of which about 1,500 (0.65%) were called active. The inconclusive results got no clear call from the source; some entries with a clear call stand among them for comparison. The call rests on the fitted dose curve; in most records, active means well fitted inhibition curve with a large enough effect; inconclusive means small, poorly fitted or top-dose-only effect; inactive means no such curve, though single readings can be large or run the other way. Where the call is inconclusive, the potency comes from a doubtful curve fit.

target: Lethal(3)malignant brain tumor-like protein 1 (Homo sapiens) (UniProt Q9Y468); assay: qHTS Assay for the Inhibitors of L3MBTL1; settings: AlphaScreen L3MBTL1–H3K9me1 peptide binding; activity, negative = inhibition: at 57.1 µM (top of the series); further: nearly all actives have a fitted effect of over 60% in size
Description: The histone code is comprised of many post-translational modifications that occur mainly in histone tail peptides. The identity and location of these marks are read by a variety of histone binding proteins that are emerging as important regulators of cellular differentiation and development and are increasingly being implicated in numerous disease states. Small molecule probes that disrupt the interaction between histone binding proteins and chromatin would enable a systematic chemical biology study of proteins that read the histone code and could potentially reveal new targets for drug discovery. However, no such small molecules are known. This dearth of quality molecular probes can largely be attributed to the novelty of the target class and the lack of screening assays. This proposal details the development of the first high-throughput screening assay for the discovery of inhibitors of methyl-lysine binding proteins and how it can be be used to initiate a full-scale discovery effort for antagonists of histone binding proteins. Specifically, this work focuses on an AlphaScreen(tm)-based HTS assay for Malignant Brain Tumor (MBT) domain-containing proteins, which bind to the lower methylation states of lysine residues present in histone tail peptides.
To each well, 2 uL of L3MBTL1 protein (final 50 nM) and 1 uL biotinylated histone peptide monomethylated at Lys9 [b-AHA-H3(1-15)K9me1] (final 75 nM) was added using a nanoliter dispenser. Formation of a protein-peptide complex proceeded at room temperature for 30 min. A Kalypsys pin-tool was employed to transfer 23 nL of library compound solution in DMSO to each well. Cefsulodin, found in a pilot screen of the LOPAC library to be a weak inhibitor of L3MBTL1 binding, was used as an intraplate control with a 16-point titration in duplicate. Following a 30 min incubation of the protein-peptide complex with compounds at room temperature, a mixture of 40 ug/mL each streptavidin-coated donor and nickel chelate acceptor AlphaScreen beads (final 10 ug/mL) was added in a 1 uL dispense for a final volume of 4 uL. Plates were incubated, protected from the light for 30 min at room temperature. Microplates were then be read on an EnVision multilabel plate reader using the 1,536 plate HTS AlphaScreen aperture (excitation time 80 ms, measurement time 240 ms).
On the % scale 0 is the no-effect control and ±100 the full control effect; potency means the concentration at half of the fitted maximal effect; tags describe the fitted curve by direction and shape.

Chain of UniProt Q9Y468 (Q9Y468 whole entry, looked up): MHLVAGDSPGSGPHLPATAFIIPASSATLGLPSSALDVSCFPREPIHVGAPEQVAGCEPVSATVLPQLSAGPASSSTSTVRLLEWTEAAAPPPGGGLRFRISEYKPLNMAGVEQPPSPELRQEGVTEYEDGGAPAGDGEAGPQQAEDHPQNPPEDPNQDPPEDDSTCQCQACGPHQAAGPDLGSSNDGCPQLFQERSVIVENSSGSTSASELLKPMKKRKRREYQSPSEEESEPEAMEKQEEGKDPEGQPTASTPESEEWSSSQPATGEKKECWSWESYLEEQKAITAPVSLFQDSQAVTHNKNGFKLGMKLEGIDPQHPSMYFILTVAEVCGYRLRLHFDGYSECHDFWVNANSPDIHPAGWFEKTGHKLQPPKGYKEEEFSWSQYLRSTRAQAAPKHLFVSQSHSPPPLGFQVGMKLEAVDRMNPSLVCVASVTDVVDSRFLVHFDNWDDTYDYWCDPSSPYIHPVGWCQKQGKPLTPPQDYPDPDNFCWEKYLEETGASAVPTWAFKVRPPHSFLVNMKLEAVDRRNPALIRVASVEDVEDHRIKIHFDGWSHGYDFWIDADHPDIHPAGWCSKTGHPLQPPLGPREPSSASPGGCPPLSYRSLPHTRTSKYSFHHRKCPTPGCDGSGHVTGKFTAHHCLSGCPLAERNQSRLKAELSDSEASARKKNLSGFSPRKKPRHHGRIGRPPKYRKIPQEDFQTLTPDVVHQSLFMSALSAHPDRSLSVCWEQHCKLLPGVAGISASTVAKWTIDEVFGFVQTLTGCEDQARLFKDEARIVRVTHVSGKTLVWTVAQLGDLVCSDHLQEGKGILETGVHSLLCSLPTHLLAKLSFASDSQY

SMILES	activity, negative = inhibition	Potency
CC(C)CNC(=O)COC(=O)c1cncc(Br)c1	inactive: -2.14%	
O=C(Oc1c(Cl)cc(Cl)c2cccnc12)c1cccc([N+](=O)[O-])c1		inconclusive: 39.8 µM [inhibitor, single point]
CCOC(=O)CC(NC(=O)c1cc2cccc(OC)c2oc1=O)c1cccc([N+](=O)[O-])c1 (stereo not given)		inconclusive: 28.2 µM [inhibitor, single point]
O=C(COC(=O)c1ccc(Br)o1)NCc1ccc(Cl)cc1		inconclusive: 0.199 µM [inhibitor, full curve, poor fit]
Cc1ccc(C(=O)N2CCN(c3ccc(NC(=S)NC(=O)c4cccs4)cc3)CC2)cc1		inconclusive: 17.8 µM [inhibitor, partial curve]
CC(=O)c1ccc(OCC(O)CN2CC(C)OC(C)C2)cc1 (stereo not given)	inactive: 3.75%	
Cc1nc2ccccn2c1C(=O)NN=C1CCCC1		inconclusive: 11.2 µM [inhibitor, full curve, poor fit]
CCOC(=O)c1ccc(NC(=O)COc2ccc(-n3cnnn3)cc2)cc1		inconclusive: 15.8 µM [inhibitor, partial curve]
CN(C)c1ccc(C(=S)NC2CCCCC2)cc1		inconclusive: 12.6 µM [inhibitor, partial curve]
CC1CCC2(CC1)C(Nc1cccc(Cl)c1)=NC(=S)N2CC#N (stereo not given)		inconclusive: 3.98 µM [inhibitor, single point]
O=C(CNC(=O)c1ccc(Br)o1)Nc1ccc(N2CCCCCC2)cc1		inconclusive: 39.8 µM [inhibitor, single point]
CCCOC(=O)CCCN1C(=O)/C(=C2\SC(=S)N(CCCC(=O)OCCC)C2=O)SC1=S	inactive: -4.5%	
O=C(N/N=C/c1ccccc1)c1ccc(OCc2ccccc2)cc1		inconclusive: 0.112 µM [inhibitor, full curve, poor fit]
O=C(COc1ccc([N+](=O)[O-])cc1)Nc1nc(-c2ccccn2)cs1		inconclusive: 35.5 µM [inhibitor, single point]
O=[N+]([O-])c1ccc(Nc2nc(N/N=C/c3cccc(F)c3)nc(N3CCCC3)n2)cc1	inactive: -2.33%	
Cc1csc(NC(=O)c2cc([N+](=O)[O-])cc([N+](=O)[O-])c2)n1		inconclusive: 39.8 µM [inhibitor, single point]
Cc1cc(C(=O)NC(=S)Nc2ccccc2N2CCCC2)ccc1[N+](=O)[O-]		inconclusive: 31.6 µM [inhibitor, single point]
Cn1/c(=N/N=C/c2ccccn2)sc2ccccc21		inconclusive: 0.562 µM [inhibitor, full curve, poor fit]
COC(=O)c1ccc(-c2ccc(/C=N/NC(=O)Cc3nnc(N)s3)o2)cc1	inactive: -13.9%	
Cc1ccc(/C=N/n2c(COc3ccccc3)n[nH]c2=S)o1		inconclusive: 39.8 µM [inhibitor, single point]
COc1ccc(S(=O)(=O)N(C)C)cc1NC(=O)[C@H](Cc1ccccc1)N1C(=O)c2ccccc2C1=O		inconclusive: 0.708 µM [inhibitor, single point]
CCn1c(CN2CCN(c3cccc(C)c3C)CC2)n[nH]c1=S	inactive: -9.43%	

SMILES	activity, negative = inhibition	Potency
COc1ccc2[nH]c(=O)c(CN(C3CCCCC3)C(c3nnnn3Cc3ccco3)C(C)C)cc2c1 (stereo not given)		inconclusive: 31.6 µM [inhibitor, single point]
O=C(Nc1ccc(S(=O)(=O)N2CCCCC2)cc1)c1ccc(CN2CCc3ccccc3C2)cc1	inactive: -11.6%	
COc1cccc(OC)c1C(=O)N=c1sc2cc(S(C)(=O)=O)ccc2n1C		inconclusive: 17.8 µM [inhibitor, partial curve]
c1ccc(-c2nc3ccccn3c2NC2CCCC2)nc1		inconclusive: 14.1 µM [inhibitor, partial curve]
O=C(N/N=C/c1ccc([N+](=O)[O-])o1)C1CC1		inconclusive: 31.6 µM [inhibitor, single point]
CN(c1ccccc1)S(=O)(=O)c1ccc(C(=O)Nc2nnc(C3CC3)s2)cc1		inconclusive: 7.08 µM [inhibitor, single point]
CN1CCN(C(=O)CCCN2C(=O)/C(=C/c3ccc(Cl)cc3)SC2=S)CC1	inactive: -1.28%	
COc1ccc(/C=C2/C(=O)N(c3nc4ccccc4s3)N=C2CSc2ccc(Cl)cc2)cc1		inconclusive: 39.8 µM [inhibitor, single point]
CCOC(=O)C1(CC)NC(c2ccco2)C2C(=O)N(c3ccc(C)cc3)C(=O)C21 (stereo not given)		inconclusive: 0.794 µM [inhibitor, single point]
C#CCOCCOCCOCCNc1nc(N2CCN(C(=O)CCCCCCCCCCNC(=O)[C@H]([C@@H](C)CC)n3cc(CCCCCN)nn3)CC2)nc(N2CCN(C(=O)CCCCCCCCCCNC(=O)[C@H]([C@@H](C)CC)n3cc(CCCCN=C(N)N)nn3)CC2)n1	inactive: -11.1%	
COc1cc(C2Nc3ccc4ncccc4c3C3=C2C(=O)CCC3)cc(OC)c1O (stereo not given)	inactive: 29.7% [at 11.4 µM]	
COc1ccc(N=Nc2cc(C)ccc2O)cc1		inconclusive: 28.2 µM [inhibitor, partial curve]
CCOC(=O)c1cc(-c2ccc(/C=C3/C(=O)NC(=O)C(C#N)=C3C)o2)ccc1Cl		inconclusive: 31.6 µM [inhibitor, single point]
CCOC(=O)C(C(=O)OCC)C1CCS(=O)(=O)C1 (stereo not given)		inconclusive: 39.8 µM [inhibitor, single point]
CCCCC(=O)NC(=S)Nc1cc(C(=O)O)ccc1OC	inactive: 6.15%	
Cc1ccc(/C=N/n2c(-c3ccccn3)n[nH]c2=S)o1		inconclusive: 35.5 µM [inhibitor, single point]
Cc1c(C)c2c(C)nn(-c3ccccc3)c2[nH]c1=O	inactive: 1.17%	
COCCN1C(=O)C(=O)/C(=C(/O)c2cccc(OC)c2)C1c1ccco1 (stereo not given)		inconclusive: 28.2 µM [inhibitor, single point]
Cc1ccc(C(=O)/C=C/c2ccco2)c(O)c1		inconclusive: 28.2 µM [inhibitor, partial curve]
CCC1(CC)NC(=O)N(CC(=O)OCC(=O)c2cc(C)c(C)cc2C)C1=O		inconclusive: 31.6 µM [inhibitor, single point]
COCCOC(=O)c1c(C)oc2ccc(NS(=O)(=O)c3ccc(C(=O)O)cc3)cc12		inconclusive: 28.2 µM [inhibitor, single point]
COc1cc(C(=O)OCC(=O)Nc2nnc(-c3ccccc3)o2)cc(OC)c1OC		inconclusive: 22.4 µM [inhibitor, partial curve]

SMILES	activity, negative = inhibition	Potency
Cc1cc(C(=O)NCCCN2CCOCC2)n(-c2ccccc2)n1		inconclusive: 39.8 µM [inhibitor, single point]
Cc1nn(CCc2nc(-c3ccco3)cs2)c2[nH]c(=O)cc(C(F)(F)F)c12		active: 35.5 µM
Cc1cc(N(CCO)CCO)ccc1N=Nc1cc(F)ccc1F		inconclusive: 35.5 µM [inhibitor, single point]
Clc1ccc(C2=CSC3=Nc4cccc5cccc(c45)N23)cc1		inconclusive: 7.94 µM [inhibitor, partial curve]
CCOC(=O)c1c(NS(=O)(=O)c2cccc(OC)c2)sc2c1CCC2		inconclusive: 35.5 µM [inhibitor, single point]
COCCn1c(C)cc(C(=O)COC(=O)c2ccc(S(=O)(=O)N(C)C)cc2)c1C	inactive: 0.143%	
COc1ccc2oc(/C=C/N(C)C)c(C(=O)c3ccc(Cl)cc3)c2c1		inconclusive: 28.2 µM [inhibitor, partial curve]
CCCCN(C(=O)c1cccc(-n2cccc2)c1)c1c(N)n(CCCC)c(=O)[nH]c1=O		inconclusive: 14.1 µM [inhibitor, partial curve]
C/C(=N\NC(=O)c1cccnc1)c1cc2ccccc2o1		inconclusive: 0.1 µM [inhibitor, full curve, poor fit]
Cc1cccc2nc(CSCc3ccco3)cn12		inconclusive: 22.4 µM [inhibitor, single point]
Cc1ccc(NC(=O)CN2C(=O)S/C(=C/c3ccc(-c4cccc(C(=O)O)c4)o3)C2=O)cc1		active: 35.5 µM
COc1ccccc1C(C)Nc1ccc(S(=O)(=O)N2CCN(C)CC2)cc1[N+](=O)[O-] (stereo not given)		inconclusive: 20 µM [inhibitor, single point]
Oc1c(CN2CCOCC2)cc(COCc2ccccc2)c2cccnc12		inconclusive: 35.5 µM [inhibitor, single point]
CCOC(=O)N1CCC(n2c(SCC(=O)Nc3ccccc3OC)nc3ccccc3c2=O)CC1		inconclusive: 1.12 µM [inhibitor, single point]
Oc1cc2c(cc1C(c1ccc(Br)cc1)N1CCCC1)OCO2 (stereo not given)		inconclusive: 28.2 µM [inhibitor, partial curve]
CC1(C)Cc2c(c(N3CCOCC3)nc3sc(-c4ccc(C(=O)O)o4)c(N)c23)CO1		inconclusive: 7.08 µM [inhibitor, partial curve]
CCOC(=O)c1cnc2ccc(OCC)cc2c1NCc1ccccc1	inactive: 85%	
CCOc1cc(N2CCOCC2)c(OCC)cc1NC(=O)CN1CCc2ccccc2C1		inconclusive: 22.4 µM [inhibitor, single point]
COC(C(=O)N/N=C(\C)c1ccc(C)cc1)c1ccccc1 (stereo not given)		inconclusive: 3.16 µM [inhibitor, single point]
CN1CCN(CCCNC(=O)c2ccc(Cn3c(=S)[nH]c4ccc(Br)cc4c3=O)cc2)CC1	inactive: -14%	
O=C(O)c1cc(NS(=O)(=O)c2cccc3ccccc23)ccc1O	inactive: -21.6% [at 11.4 µM]	
